Assay results as given in EP4748857A1 (Seoul National University R&DB Foundation, dated 2026).

T1: human CD40L expressed on cells (Jurkat D1.1 (hCD40L+) cell line); CD154L cells / L cell line overexpressing … (human, UniProt P29965 1-261)
T1 construct: whole, on cells; also called CD154L (hCD40L+) cell line; L cell line overexpressing hCD40L
T1 sequence (looked up): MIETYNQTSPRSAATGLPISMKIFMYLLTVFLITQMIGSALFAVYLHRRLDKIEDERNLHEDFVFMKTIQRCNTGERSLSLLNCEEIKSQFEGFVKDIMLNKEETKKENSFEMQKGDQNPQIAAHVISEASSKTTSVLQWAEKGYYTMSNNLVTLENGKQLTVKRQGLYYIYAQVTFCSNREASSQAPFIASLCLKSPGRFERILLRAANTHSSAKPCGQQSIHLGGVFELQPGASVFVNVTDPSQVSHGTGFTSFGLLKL


Assays:
[1] = target: T2, human CD28 expressed on cells (Jurkat E6.1 (Human CD28+) cell line; human CD4 T cells) (human, UniProt P10747 19-220); assay: flow cytometry, Jurkat E6.1 cells, anti-hCk-APC detection
T2 construct: whole, on cells; also called cell surface CD28; hCD28+

[2] = target: T3, recombinant human CD28 protein (R&D systems) in a form conjugated to human Fc region (human, UniProt P10747 19-152); assay: ELISA, plate coated with recombinant CD28-Fc, anti-hCk-HRP detection
T3 construct: also called recombinant CD28 protein; not shown: human Fc region

[3] = target: T1, human CD40L expressed on cells (Jurkat …); assay: flow cytometry (FIG. 22)

Row | binding result [1] | binding result [2] | binding result [3] | Binder
1 | binds | binds |  | TSGx2-G12, anti-CD40L/anti-CD28 bispecific antibody [N'-(TSG scFv) - linker-Ck-linker - (2-G12 scFv)-C'] (bispecific antibody, also called anti-CD40L-Ck-CD28 bispecific antibody; aCD40L-aCD28) ELTQDPAVSVALGQTVRITCSGGYSSYGIYYYGWYQQKPGQAPVTVIYNGNKRPSGIPDRFSGSSSGNTASLTITGAQAEDEADYYCGSGDSSSDSGIFGGGTKLTVLGQSSRSSGGGGSSGGGGSEVQLVESGGGLVQPGGSLRLSCAASGFTFSSYGMNWVRQAPGKGLEWVGAISNDGSSTSYAP[about 20 residues left out]MNSLRAEDTAVYYCAKESTNGGWVADDIDAWGQGTLVTVSSGQAGQGGGGSGGGGSGGGGSKLRTVAAPSVFIFPPSDEQLKSGTASVVCLLNNFYPREAKVQWKVDNALQSGNSQESVTEQDSKDSTYSLSSTLTLSKADYEKHKVYACEVTHQGLSLPVTKSFNRGESLEGGGGSGGGGSGGGGSTGLTQPSSVSANPGETVKITCSGGGSNNYGWYQQKPGSAPVTVIYYNDKRPSGIPSRFSGSTSGSTGTLTITGVRAEDEAVYFCGSRDSSHDGIFGGGTKLTVLGQSSRSSGGGGSSGGGGSPVKLVESGGGLVTPGGSLRLSCSASGFTFSSYAMHWVRQAPGKGLEYVGQISSNDGSWTGYGAAVKGRFTISRDNSKSTLYLQMNSLRAEDTAVYYCAKAAGGYNVCGYGCGGDYIDAWGHGTQVTVSSTS
2 |  |  | binds | TIG clone (humanized 3E-3, anti-CD40L) (bispecific antibody, not shown: [CUT]) scFv: ELTQDPAVSVALGQTVRITCSGGYSSYGIYYYGWYQQKPGQAPVTVIYNGNKRPSGIPDRFSGSSSGNTASLTITGAQAEDEADYYCGSGDSSSDSGIFGGGTKLTVLGQSSRSSGGGGSSGGGGSEVQLVESGGGLVQPGGSLRLICAASGFTFSSYGMNWVRQAPGKGLEWVGAISNDGSSTSYAP[about 20 residues left out]MNSLRAEDTAVYYCAKESTNGGWVADDIDAWGQGTLVTVSS
3 |  |  | binds | TIS clone (humanized 3E-3, anti-CD40L) (bispecific antibody, not shown: [CUT]) scFv: ELTQDPAVSVALGQTVRITCSGGYSSYGIYYYGWYQQKPGQAPVTVIYNGNKRPSGIPDRFSGSSSGNTASLTITGAQAEDEADYYCGSGDSSSDSGIFGGGTKLTVLGQSSRSSGGGGSSGGGGSEVQLVESGGGLVQPGGSLRLICAASGFTFSSYGMNWVRQAPGKGLEWVSAISNDGSSTSYAP[about 20 residues left out]MNSLRAEDTAVYYCAKESTNGGWVADDIDAWGQGTLVTVSS
4 |  |  | binds | TSS clone (humanized 3E-3, anti-CD40L) (bispecific antibody, not shown: [CUT]) scFv: ELTQDPAVSVALGQTVRITCSGGYSSYGIYYYGWYQQKPGQAPVTVIYNGNKRPSGIPDRFSGSSSGNTASLTITGAQAEDEADYYCGSGDSSSDSGIFGGGTKLTVLGQSSRSSGGGGSSGGGGSEVQLVESGGGLVQPGGSLRLSCAASGFTFSSYGMNWVRQAPGKGLEWVSAISNDGSSTSYAP[about 20 residues left out]MNSLRAEDTAVYYCAKESTNGGWVADDIDAWGQGTLVTVSS
